From PubChem BioAssay AID624171 (National Center for Advancing Translational Sciences (NCATS), 2012)
In all, about 410,000 compounds went through this assay and about 1,200 (0.29%) were called active. The inconclusive results got no clear call from the source; some entries with a clear call stand among them for comparison. Calls come from the whole dose curve; as a rule, active = well fitted activation curve with a large enough effect; inconclusive = small, poorly fitted or top-dose-only effect; inactive = flat fitted curve, though single readings scatter. Where the call is inconclusive, the potency comes from a doubtful curve fit.

assay: qHTS of Nrf2 Activators; conditions: AREc32 ARE-luciferase reporter (MCF7-derived line), luminescence, 24 h; activation: at 46.1 µM (top of the series); note: nearly all actives have a fitted effect of over 65% in size; for activation: % of control where 0% means no effect
Outline: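 Each well held 1000 AREc32 cells, which were incubated with compound for 24 hr at 37 deg C after overnight attachment, and ARE reporter activity was quantified by firefly luciferase luminescence.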
Potency is the fitted concentration of half-maximal effect; tags give direction and shape of the fitted curve.

Row | SMILES | Potency | activation
1 | O=C(/C=C/c1ccccc1)NC(=S)Nc1ccc(CN2CCOCC2)cc1 | inconclusive: 22.4 µM [activator, single point] | 
2 | CCOC(=O)c1sc2nc(C)nc(NCc3ccccc3OC)c2c1C |  | inactive: -0.309%
3 | COc1ccc2nc(Nc3nc(C)c(C(C)=O)s3)sc2c1 | inconclusive: 14.1 µM [activator, single point] | 
4 | CCOc1ccc(CCNC(=O)c2ccc(Cn3c(=O)c4cccn4c4cccnc43)cc2)cc1 |  | inactive: -0.759%
5 | Cc1ccc(-c2ccc(=O)n(CC(=O)NC(C)c3ccccc3)n2)cc1 (stereo not given) |  | inactive: -0.632%
6 | O=C1/C(=C/c2cccs2)Cc2ccccc21 | inconclusive: 10 µM [activator, partial curve, poor fit] | 
7 | CC(=O)c1ccc(C(=O)Nc2ccc(N3CCOCC3)cc2)cc1 |  | inactive: -0.923%
8 | CCOC(=O)c1c(S(=O)(=O)N2CCC(C(=O)Nc3cccc(C#N)c3)CC2)c(C)n(C)c1C |  | inactive: -1.05%
9 | COc1cc(C(=O)Sc2ccc(C)cc2)cc(OC)c1OC | inconclusive: 22.4 µM [activator, single point] | 
10 | CS(=O)(=O)N(Cc1ccccc1)c1ccc(C(=O)NCCSCc2ccco2)cc1 | inconclusive: 17.8 µM [activator, single point] | 
11 | CC(C)CN(C(=O)c1ccco1)c1nc2ccccc2s1 | inconclusive: 12.6 µM [activator, partial curve, poor fit] | 
12 | COc1ccc(CCNc2nnc(Sc3nnnn3-c3ccccc3)s2)cc1OC | inconclusive: 17.8 µM [activator, single point] | 
13 | CCN1CCC(O)(/C=C/c2ccc(C(C)C)cc2)C(C(=O)/C=C/c2ccc(C(C)C)cc2)C1 (stereo not given) | inconclusive: 3.55 µM [activator, single point] | 
14 | N#CC(=Cc1ccccn1)c1nc(-c2ccc(Cl)cc2)cs1 | active: 12.6 µM | 
15 | CN1C(=O)NC(c2ccccc2)(C(F)(F)F)S/C1=C(/C#N)c1nnc(N2CCOCC2)n1-c1ccccc1 (stereo not given) | inconclusive: 22.4 µM [activator, single point] | 
16 | Oc1ccc(-c2csc(-c3ccccc3)n2)cc1O | inconclusive: 11.2 µM [activator, partial curve] | 
17 | COC(=O)c1sccc1NC(=O)Nc1ccc(C)c(C)c1 | inconclusive: 14.1 µM [activator, single point] | 
18 | Cc1cc(C(=O)COc2ccccc2[N+](=O)[O-])c(C)n1C1CC1 | inconclusive: 14.1 µM [activator, partial curve, poor fit] | 
19 | Cc1sc(-c2cc3ccccc3oc2=O)nc1-c1ccc(Cl)cc1 | inconclusive: 14.1 µM [activator, single point] | 
20 | COc1ccc2[nH]c3c(NCc4ccco4)ncnc3c2c1 | active: 3.16 µM | 
21 | COc1ccc2cc(S(=O)(=O)c3ccccc3F)c(=O)oc2c1 | inconclusive: 17.8 µM [activator, partial curve, poor fit] | 
22 | COc1ccc(OC)c(NC(=O)c2cc(S(=O)(=O)NCc3ccco3)ccc2F)c1 |  | inactive: -0.59%
23 | Cc1ccc(-c2nc3scc(CCNS(=O)(=O)c4ccc(C)c(C)c4)n3n2)cc1 |  | inactive: 13.2%

Row | SMILES | Potency | activation
24 | Cc1ccc(/C=C/C(=O)Nc2nnc(C)s2)o1 | inconclusive: 2.51 µM [activator, partial curve, poor fit] | 
25 | CCOC(=O)N1CCN(C(=O)CCl)CC1 | inconclusive: 22.4 µM [activator, partial curve, poor fit] | 
26 | Cc1ccnc(NC(=S)NC(=O)/C=C/c2ccco2)c1 | inconclusive: 12.6 µM [activator, partial curve, poor fit] | 
27 | CN(C)c1nc(F)c(F)c(S(=O)(=O)c2ccccc2)c1F | inconclusive: 15.8 µM [activator, partial curve, poor fit] | 
28 | CC12CNCC(C)(CN(C3(O)C(=O)Nc4ccc(Br)cc43)C1)C2=O (stereo not given) | inconclusive: 20 µM [activator, partial curve, poor fit] | 
29 | CC(=O)c1ccc(N2CCN(C(=O)/C=C/c3ccc(S(=O)(=O)N4CCOCC4)cc3)CC2)cc1 |  | inactive: 0.432%
30 | Cc1c(-c2nc(-c3cccnc3)no2)cccc1[N+](=O)[O-] | inconclusive: 3.16 µM [activator, full curve] | 
31 | Cc1nonc1C(=O)N/N=C/c1ccc([N+](=O)[O-])o1 | inconclusive: 22.4 µM [activator, single point] | 
32 | O=c1c2c(nc3cc(-c4ccccc4Cl)[nH]n13)CCS2 |  | inactive: 0.152%
33 | COc1cc(OC)cc(C(=O)Nc2cc(-c3nc4ccccc4[nH]3)ccc2C)c1 |  | inactive: 0.61%
34 | Cc1ccc(/C=C/C(=O)Nc2nc(-c3cccs3)ns2)cc1 | inconclusive: 8.91 µM [activator, partial curve, poor fit] | 
35 | C=C(CC)C(=O)c1ccc(OCC(=O)O)c(Cl)c1Cl | inconclusive: 3.55 µM [activator, single point] | 
36 | O=[N+]([O-])c1ccc(C2=Nc3cc(Cl)ccc3OC2)cc1 | active: 12.6 µM | 
37 | CC(/C=C/c1ccco1)=N/NC(=O)c1ccccc1Cl | inconclusive: 17.8 µM [activator, single point] | 
38 | COc1ccccc1Nc1nc(C)cc(C)n1 |  | inactive: 2.28%
39 | NC(=O)c1ccsc1NC(=O)COC(=O)c1cc(Cl)ccc1O | inconclusive: 17.8 µM [activator, single point] | 
40 | Cn1c(NC(=O)/C=C\c2ccccc2)cc(=O)n(C)c1=O | active: 11.2 µM | 
41 | CC(=O)NN1C(=O)/C(=C\c2ccccc2)SC1=S | inconclusive: 20 µM [activator, single point] | 
42 | Cc1ccc(C(C[N+](=O)[O-])c2c(C)[nH]n(-c3ccccc3)c2=O)cc1 (stereo not given) | inconclusive: 25.1 µM [activator, single point] | 
43 | CCOC(=O)c1c(NC(=O)/C=C/C(=O)O)sc(C)c1-c1ccc(C(C)(C)C)cc1 | inconclusive: 5.62 µM [activator, single point] | 
44 | Oc1ccc(NCc2cccc(OCc3ccc(F)cc3)c2)cc1 | inconclusive: 5.62 µM [activator, full curve] | 
45 | COc1cc(C(=O)/C=C/c2cccnc2)ccc1O | inconclusive: 3.16 µM [activator, single point] | 
